Measurements from the supplement of paper PMC8728848.
This is one part of the list.

Tests used:
Experiment in all cases: glycan array binding signal (z-score within array); higher = stronger binding
Conditions in all cases: glycan notation: IUPAC condensed, linker removed; mutation: D109R
[1] = target: Gal(a1-3)Gal
Summary of the method: (§1)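 Glycan array binding is given as a within-array Z-score, which can be read as non-binding when negative. The arrays, 3228 of them, came from the Consortium for Functional Glycomics database and were retained only where the protein sequence was available. Z-scores were averaged across arrays of the same protein sequence at different concentrations or buffers and across linkers.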

[2] = target: Gal(a1-3)Gal(b1-3)GlcNAc
Summary of the method: as §1

[3] = target: Gal(a1-3)Gal(b1-3)GlcNAc(b1-2)Man
Summary of the method: as §1

[4] = target: Gal(a1-3)Gal(b1-3)GlcNAc(b1-2)Man(a1-3)[Gal(a1-3)Gal(b1-3)GlcNAc(b1-2)Man(a1-6)]Man(b1-4)GlcNAc(b1-4)GlcNAc
Summary of the method: as §1

[5] = target: Gal(a1-3)Gal(b1-3)GlcNAc(b1-3)GalNAc
Summary of the method: as §1

[6] = target: Gal(a1-3)Gal(b1-3)GlcNAc(b1-6)GalNAc
Summary of the method: as §1

[7] = target: Gal(a1-3)Gal(b1-3)[Fuc(a1-4)]GlcNAc(b1-2)Man(a1-3)[Gal(a1-3)Gal(b1-3)[Fuc(a1-4)]GlcNAc(b1-2)Man(a1-6)]Man(b1-4)GlcNAc(b1-4)GlcNAc
Summary of the method: as §1

[8] = target: Gal(a1-3)Gal(b1-4)Glc
Summary of the method: as §1

[9] = target: Gal(a1-3)Gal(b1-4)GlcNAc
Summary of the method: as §1

[10] = target: Gal(a1-3)Gal(b1-4)GlcNAc(b1-2)Man
Summary of the method: as §1

[11] = target: Gal(a1-3)Gal(b1-4)GlcNAc(b1-2)Man(a1-3)[Gal(a1-3)Gal(b1-4)GlcNAc(b1-2)Man(a1-6)]Man(b1-4)GlcNAc(b1-4)GlcNAc
Summary of the method: as §1

[12] = target: Gal(a1-3)Gal(b1-4)GlcNAc(b1-3)GalNAc
Summary of the method: as §1

[13] = target: Gal(a1-3)Gal(b1-4)GlcNAc(b1-6)GalNAc
Summary of the method: as §1

[14] = target: Gal(a1-3)Gal(b1-4)[Fuc(a1-3)]GlcNAc
Summary of the method: as §1

[15] = target: Gal(a1-3)Gal(b1-4)[Fuc(a1-3)]GlcNAc(b1-2)Man(a1-3)[Gal(a1-3)Gal(b1-4)[Fuc(a1-3)]GlcNAc(b1-2)Man(a1-6)]Man(b1-4)GlcNAc(b1-4)GlcNAc
Summary of the method: as §1

[16] = target: Gal(a1-3)GalNAc
Summary of the method: as §1

[17] = target: Gal(a1-3)[Gal(a1-4)]Gal(b1-4)GlcNAc
Summary of the method: as §1

[18] = target: Gal(a1-4)Gal(b1-3)GlcNAc(b1-2)Man(a1-3)[Gal(a1-4)Gal(b1-3)GlcNAc(b1-2)Man(a1-6)]Man(b1-4)GlcNAc(b1-4)GlcNAc
Summary of the method: as §1

[19] = target: Gal(a1-4)Gal(b1-4)Glc
Summary of the method: as §1

[20] = target: Gal(a1-4)Gal(b1-4)GlcNAc
Summary of the method: as §1

[21] = target: Gal(a1-4)Gal(b1-4)GlcNAc(b1-2)Man(a1-3)[Gal(a1-4)Gal(b1-4)GlcNAc(b1-2)Man(a1-6)]Man(b1-4)GlcNAc(b1-4)GlcNAc
Summary of the method: as §1

[22] = target: Gal(a1-4)Gal(b1-4)GlcNAc(b1-3)Gal(b1-4)Glc
Summary of the method: as §1

[23] = target: Gal(a1-4)GlcNAc
Summary of the method: as §1

[24] = target: Gal(a1-6)Glc
Summary of the method: as §1

[25] = target: Gal(b1-2)Gal
Summary of the method: as §1

[26] = target: Gal(b1-3)Gal
Summary of the method: as §1

[27] = target: Gal(b1-3)Gal(b1-4)GlcNAc
Summary of the method: as §1

[28] = target: Gal(b1-3)GalNAc
Summary of the method: as §1

[29] = target: Gal(b1-3)GalNAc(a1-3)[Fuc(a1-2)]Gal(b1-4)Glc
Summary of the method: as §1

[30] = target: Gal(b1-3)GalNAc(a1-3)[Fuc(a1-2)]Gal(b1-4)GlcNAc
Summary of the method: as §1

[31] = target: Gal(b1-3)GalNAc(b1-3)Gal
Summary of the method: as §1

[32] = target: Gal(b1-3)GalNAc(b1-3)Gal(a1-4)Gal(b1-4)Glc
Summary of the method: as §1

[33] = target: Gal(b1-3)GalNAc(b1-4)Gal(b1-4)Glc
Summary of the method: as §1

[34] = target: Gal(b1-3)GalNAc(b1-4)[Neu5Ac(a2-3)]Gal(b1-4)Glc
Summary of the method: as §1

[35] = target: Gal(b1-3)GlcNAc
Summary of the method: as §1

[36] = target: Gal(b1-3)GlcNAc(a1-3)Gal(b1-4)GlcNAc
Summary of the method: as §1

[37] = target: Gal(b1-3)GlcNAc(a1-6)Gal(b1-4)GlcNAc
Summary of the method: as §1

[38] = target: Gal(b1-3)GlcNAc(b1-2)Man
Summary of the method: as §1

B1: MpL2 (Macrolepiota procera) (protein)
chain: MSTQVSSGQTYKITNVKAGTVIDLSGEDNKSIIGYPYHSGKNQQWTFNWTGKAWTLRSASSGSYLGIEGTPADGTRLVAVNDPFEWHIWRDEANENAFRIFVPFTNYNLRLSGYGDTTPGTPVQLWWTWEGLHQTWTIDRP
glycan array binding signal (z-score) [1]: -0.242
glycan array binding signal (z-score) [2]: -0.242
glycan array binding signal (z-score) [3]: -0.239
glycan array binding signal (z-score) [4]: -0.213
glycan array binding signal (z-score) [5]: -0.237
glycan array binding signal (z-score) [6]: -0.272
glycan array binding signal (z-score) [7]: -0.234
glycan array binding signal (z-score) [8]: -0.236
glycan array binding signal (z-score) [9]: -0.264
glycan array binding signal (z-score) [10]: -0.302
glycan array binding signal (z-score) [11]: -0.227
glycan array binding signal (z-score) [12]: -0.265
glycan array binding signal (z-score) [13]: -0.314
glycan array binding signal (z-score) [14]: -0.273
glycan array binding signal (z-score) [15]: -0.196
glycan array binding signal (z-score) [16]: -0.244
glycan array binding signal (z-score) [17]: -0.242
glycan array binding signal (z-score) [18]: -0.229
glycan array binding signal (z-score) [19]: -0.249
glycan array binding signal (z-score) [20]: -0.289
glycan array binding signal (z-score) [21]: -0.118
glycan array binding signal (z-score) [22]: -0.482
glycan array binding signal (z-score) [23]: -0.264
glycan array binding signal (z-score) [24]: -0.267
glycan array binding signal (z-score) [25]: -0.285
glycan array binding signal (z-score) [26]: -0.24
glycan array binding signal (z-score) [27]: -0.255
glycan array binding signal (z-score) [28]: -0.256
glycan array binding signal (z-score) [29]: -0.212
glycan array binding signal (z-score) [30]: -0.201
glycan array binding signal (z-score) [31]: -0.266
glycan array binding signal (z-score) [32]: -0.234
glycan array binding signal (z-score) [33]: -0.202
glycan array binding signal (z-score) [34]: -0.252
glycan array binding signal (z-score) [35]: 0.061
glycan array binding signal (z-score) [36]: 1.13
glycan array binding signal (z-score) [37]: 3.81
glycan array binding signal (z-score) [38]: -0.13
